In US20240254195A1:

T1: BMP-10 (UniProt O95393)
T1 sequence (looked up): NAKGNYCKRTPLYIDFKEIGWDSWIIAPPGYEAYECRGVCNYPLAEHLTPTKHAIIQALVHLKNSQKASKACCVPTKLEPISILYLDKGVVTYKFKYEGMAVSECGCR

T2: BMP-9 (UniProt Q9UK05)
T2 sequence (looked up): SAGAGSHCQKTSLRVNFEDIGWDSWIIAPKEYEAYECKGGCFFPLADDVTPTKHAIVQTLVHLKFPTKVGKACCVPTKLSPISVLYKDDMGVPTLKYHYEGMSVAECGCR

T3: GDF-11 (UniProt O95390)
T3 sequence (looked up): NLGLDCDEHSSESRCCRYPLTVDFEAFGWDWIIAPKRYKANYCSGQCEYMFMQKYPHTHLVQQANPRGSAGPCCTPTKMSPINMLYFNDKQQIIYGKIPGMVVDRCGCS

T4: GDF-8 (UniProt O14793)
T4 sequence (looked up): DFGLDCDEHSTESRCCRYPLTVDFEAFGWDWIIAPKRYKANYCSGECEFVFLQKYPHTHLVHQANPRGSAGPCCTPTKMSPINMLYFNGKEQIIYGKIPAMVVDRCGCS

T5: activin B (UniProt P09529)
T5 sequence (looked up): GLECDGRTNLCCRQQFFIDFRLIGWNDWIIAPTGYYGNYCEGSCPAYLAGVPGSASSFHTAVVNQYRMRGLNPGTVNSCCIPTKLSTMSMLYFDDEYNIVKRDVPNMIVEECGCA


Key:
Assay in all cases: cell-based or functional assay
[1] = biological target: T1, BMP-10
[2] = biological target: T2, BMP-9
[3] = biological target: T3, GDF-11
[4] = biological target: T4, GDF-8
[5] = biological target: T5, activin B
[6] = biological target: recombinant human activin A (human) (UniProt P08476)
Sequence of UniProt P08476 (P08476 311-426 limits assumed): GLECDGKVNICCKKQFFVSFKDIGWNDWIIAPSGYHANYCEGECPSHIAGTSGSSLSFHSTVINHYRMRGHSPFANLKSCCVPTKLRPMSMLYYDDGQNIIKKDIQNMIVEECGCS

| BMP-10 IC50 [1] [nM] | BMP-9 IC50 [2] [nM] | GDF-11 IC50 [3] [nM] | GDF-8 IC50 [4] [nM] | Activin B IC50 [5] [nM] | Activin A IC50 [6] [nM] | Binder |
| --- | --- | --- | --- | --- | --- | --- |
| 2.9 | 2.1 | 1.5 | 1.4 | 2.4 | 1.6 | P753 (Fc fusion) ETRECIYYNANWELERTNQSGLERCEGEQDKRLHCYASWRNSSGTIELVKKGCWLDDFNCYDRQECVAHEENPQVYFCCCEGNFCNERFTHLPEAGGPEVTYEPPPTGGGGSGGGGSGG[human IgG1 Fc and a few adjoining residues cut from this listing] |
| 2.5 | 3.5 | 1.6 |  | 2.1 | 1.5 | P754 (Fc fusion) ETRECIYYNANWELERTNQSGLERCEGEQDKRLHCYASWRNSSGTIELVKKGCWLDDFNCYDRQECVAQEENPQVYFCCCEGNFCNERFTHLPEAGGPEVTYEPPPTGGGGSGGGGSGG[human IgG1 Fc and a few adjoining residues cut from this listing] |
| 4 | 1.1 | 2.1 | 2 | 6 | 3.5 | P739 (Fc fusion) ETRECIYYNANWELERTNQSGLERCEEEQDKRLHCYASWRNSSGTIELVKKGCWLDDFNCYDRQECVATEENPQVYFCCCEGNFCNERFTHLPEAGGPEVTYEPPPTGGGGSGGGGSGG[human IgG1 Fc and a few adjoining residues cut from this listing] |
